Structures are written as SMILES. ± gives the uncertainty stated by the source. Whole data set: some 9,900 compounds, median “viability index relative to DMSO control” near 1, cut for the lowest 2% near 0.85. This is one part of the list.

In the assay the test system is Plasmodium falciparum NF54 stage V gametocytes. As to the kind of experiment: viability index relative to DMSO control (fraction); higher = less gametocyte killing. To be noted: 2.5 µM, library set: Broad Institute DOS, incubation time: 72 h. On the procedure:
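Broad DOS informer set and blood-stage-active DOS compounds screened in duplicate at 2.5 µM against P. falciparum NF54 stage V gametocytes with the serum-free one-step SaLSSA (1536-well): 72 h at 37 °C under low oxygen, then saponin lysis and MitoTracker Red CMXRos staining, with high-content imaging. Viability index = viable-object count divided by the plate mean of DMSO wells (0 = killed, about 1 = inactive).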
`OC[C@@H]1Nc2ccc(-c3cccc(F)c3)cc2[C@@H]2[C@H]1CCN2Cc1ccc(F)cc1` returned a viability index of 1.04 ± 0.06.
As to `C[C@H](NC(=O)C[C@@H]1CC[C@@H]2[C@H](COc3ccc(NC(=O)C4CCOCC4)cc3C(=O)N2C)O1)c1ccccc1`, the viability index was 1.15 ± 0.033.
Then `C/C=C/c1ccc2c(c1)[C@H]1[C@H](CCN1S(=O)(=O)c1cn(C)cn1)[C@H](CO)N2`, with 1.06 ± 0.042; and `O=C(C[C@H]1CC[C@@H]2[C@H](COC[C@@H](O)CN2C(=O)c2ccncc2)O1)Nc1ccc(-c2ccccc2)cc1`, with 1.06 ± 0.044; and `CN(C)CC(=O)N[C@@H]1C=C[C@@H](CC(=O)NCc2ccc(Cl)cc2)O[C@@H]1CO`, with 1.06 ± 0.15.
Then `COc1ccc(C(=O)Nc2ccc3c(c2)C(=O)N(C)[C@H]2CC[C@@H](CC(=O)NCC4CC4)O[C@@H]2CO3)cc1`, with 0.952 ± 0.035.
On to `N#C[C@H]1[C@@H](c2ccccc2)[C@@H](CO)N1C(=O)Nc1cccc(F)c1`, for which the viability index stood at 1.06 ± 0.057.
`O=C(c1cnccn1)N1CC(=O)N2[C@H](C1)[C@H](c1ccc(/C=C/c3ccccc3)cc1)[C@@H]2CO` registered a viability index of 1.003 ± 0.0087.
The result for `COCC(=O)N1[C@@H]2c3cccc(=O)n3C[C@@H]2[C@@H](CO)[C@@H]1C(=O)NCc1ccccc1` reads 1.08 ± 0.017.
The result for `COCC(=O)N1CC2(C1)[C@H](c1ccccc1)[C@H](CO)N2CCC(F)(F)F` reads 1.11 ± 0.038.
The result for `CCCC#Cc1ccc([C@@H]2[C@@H](CO)N3C(=O)CN(C(=O)c4cccnc4)C[C@H]23)cc1` reads 1.05 ± 0.094; that for `CNC[C@@H]1Oc2ccc(NC(=O)CCC(F)(F)F)cc2C(=O)N([C@@H](C)CO)C[C@@H]1C`, 1.02 ± 0.018.
For `COc1ccc(S(=O)(=O)N2C[C@@H](O)COC[C@@H]3O[C@H](CC(=O)N[C@@H]4CCN(Cc5ccccc5)C4)CC[C@H]32)cc1`, the viability index turned out to be 0.982 ± 0.056.
On to `COc1cccc(S(=O)(=O)Nc2ccc3c(c2)C(=O)N(C)[C@@H]2CC[C@@H](CC(=O)NCC4CCCCC4)O[C@@H]2CO3)c1`, for which the viability index was found to be 0.971 ± 0.1.
The result for `COc1cccc(-c2ccc3c(c2)[C@H]2[C@H](CCN2S(=O)(=O)c2cn(C)cn2)[C@@H](CO)N3)c1` reads 0.979 ± 0.073; that for `OC[C@@H]1[C@H]2c3ccccc3NC[C@H]2N1CC1CCOCC1`, 1.04 ± 0.048.
Then `C[C@H]1CN([C@@H](C)CO)C(=O)CCCn2nncc2CO[C@H]1CN(C)CC1CCCCC1`, with 0.965 ± 0.045; and `CN1CCN(C(=O)C[C@@H]2CC[C@H]3[C@H](COc4ccc(NC(=O)C5CCOCC5)cc4C(=O)N3C)O2)CC1`, with 1.05 ± 0.029.
Then `OC[C@H]1[C@H]2c3ccccc3NC[C@H]2N1Cc1ccccc1Cl`, with 0.982 ± 0.082; and `C/C=C/c1ccccc1[C@H]1[C@@H](C#N)N(c2nc(CC)cs2)[C@H]1CO`, with 1.08 ± 0.12; and `C[C@@H]1CCCCO[C@H](CN(C)C(=O)CCC(F)(F)F)[C@@H](C)CN([C@@H](C)CO)C(=O)c2cc(NC(=O)C3CCCCC3)ccc2O1`, with 1.06 ± 0.032.
Compound `Cc1ccccc1-c1ccc([C@@H]2[C@@H]3CN(C(=O)Cc4ccncc4)C[C@H]2N3)cc1` had a viability index of 0.921 ± 0.11.
Turning to `C[C@@H]1CN([C@@H](C)CO)C(=O)CCCn2nncc2CO[C@@H]1CN(C)C(=O)Nc1ccccc1C(F)(F)F`, the viability index amounted to 0.986 ± 0.044.
The result for `O=C(NCc1ccccc1)[C@H]1[C@H](CO)[C@H]2Cn3c(cccc3=O)[C@@H]1N2C(=O)Cc1ccccn1` reads 1.01 ± 0.015; that for `CO[C@@H]1CN(C)C(=O)c2cc(NC(=O)Nc3cc(F)ccc3F)ccc2OC[C@H](C)NC[C@H]1C`, 1.022 ± 0.01; that for `COc1ccc2c3c([nH]c2c1)[C@@H](CO)N(C[C@]31CN(Cc2cc(F)ccc2F)C1)C(=O)Nc1ccc(F)cc1`, 0.9168 ± 0.0018.
Compound `O=C(C[C@H]1C=C[C@@H](NC(=O)Cc2cccnc2)[C@H](CO)O1)NCc1ccc2c(c1)OCO2` displayed a viability index of 1.11 ± 0.064.
Then `C/C=C/c1ccc([C@H]2[C@@H](CO)N(C(=O)CN(C)C)C23CN(C(=O)C2CCOCC2)C3)cc1`, with 1.126 ± 0.0026; and `CN1C[C@H](O)COC[C@H]2O[C@H](CC(=O)NC3CCCC3)CC[C@@H]21`, with 1.12 ± 0.03; and `O=C(CN1CCOCC1)N1CC2(C1)[C@H](c1ccccc1)[C@H](CO)N2Cc1cccc(F)c1`, with 1.04 ± 0.025.
The result for `CCNC(=O)c1cc2c(c(-c3cccc(-c4cccc(C(=O)N(C)C)c4)c3)n1)[C@@H](CCO)N([S@](=O)C(C)(C)C)C2` reads 0.99 ± 0.12; that for `O=C(C[C@@H]1CC[C@@H]2[C@H](COC[C@H](O)CN2Cc2ccc(F)cc2)O1)NCCc1ccccc1`, 0.951 ± 0.081; that for `CCC(=O)N1Cc2cc(C(=O)N(C)C)nc(-c3cccc(-c4cncnc4)c3)c2[C@H]1CCO`, 1.05 ± 0.059.
In the case of `CCc1cnc(N2[C@@H](C#N)[C@H](c3ccc(-c4cccc(F)c4)cc3)[C@@H]2CO)s1`, the viability index stood at 1.04 ± 0.022.
Then `Cc1cccc(S(=O)(=O)N2C[C@@H]3[C@H](c4ccccc42)[C@@H](CO)N3CC2CCCC2)c1`, with 0.975 ± 0.029; and `CN1C(=O)c2cc(NC(=O)c3cnccn3)ccc2OC[C@H]2O[C@@H](CC(=O)Nc3cc(F)ccc3F)CC[C@@H]21`, with 1.14 ± 0.071; and `O=C(C[C@@H]1C=C[C@@H](NC(=O)Cc2cccnc2)[C@H](CO)O1)NCc1ccc2c(c1)OCO2`, with 1.09 ± 0.16.
Then `O=C(C[C@@H]1C[C@H]2c3cc(NS(=O)(=O)c4ccc(F)cc4)ccc3O[C@H]2[C@@H](CO)O1)NCCN1CCCCC1`, with 1.02 ± 0.019; and `Cc1ccccc1-c1ccc([C@H]2[C@@H](CO)N3C(=O)CN(C(=O)c4ccncc4)C[C@@H]23)cc1`, with 0.957 ± 0.02; and `OC[C@H]1[C@H](c2ccc(-c3cccnc3)cc2)[C@@H]2CN(Cc3ccccn3)CCCCN12`, with 1.02 ± 0.081.
The compound `CCC(=O)N1C[C@@]2(C1)CN([C@@H](CO)c1c2c2ccc(OC)cc2n1C)C(=O)c1cnccn1` returned a viability index of 0.916 ± 0.066.
Then `CCc1csc(N2[C@H](CO)[C@H](c3ccccc3)[C@@H]2CN(C)C(=O)C2CCC2)n1`, with 1.03 ± 0.059; and `CN1CCN(C(=O)C[C@H]2CC[C@@H]3[C@H](COC[C@H](O)CN3C(=O)c3ccccc3F)O2)CC1`, with 0.986 ± 0.019; and `COc1ccc2c3c([nH]c2c1)[C@@H](CO)N(C[C@]31CN(C1)C(=O)c1ccncc1)C(=O)NC(C)C`, with 0.97 ± 0.089.
Then `Cc1noc(C)c1S(=O)(=O)N(C)C[C@H]1Oc2c(NS(=O)(=O)c3cn(C)cn3)cccc2C(=O)N([C@H](C)CO)C[C@H]1C`, with 1 ± 0.096.
Turning to `Cc1ccccc1-c1ccc([C@@H]2[C@@H](CO)N3C(=O)CN(C(=O)c4ccncc4)C[C@H]23)cc1`, the viability index stood at 0.948 ± 0.064.
For `C[C@@H]1CN([C@@H](C)CO)C(=O)Cc2cc(N(C)C)ccc2O[C@H]1CN(C)C(=O)NC1CCCCC1`, the viability index worked out at 0.995 ± 0.062.
In the case of `CCC(=O)N1[C@H](CO)[C@H](c2ccc(C#CC3CCCCC3)cc2)[C@@H]1CNC(C)C`, the viability index was 0.9182 ± 0.0016.
Then `O=C(c1ccccc1F)N1CC(=O)N2[C@H](C1)[C@H](c1ccc(C#Cc3ccccc3)cc1)[C@@H]2CO`, with 0.998 ± 0.091; and `O=C(Nc1ccc2c(c1)[C@@H]1C[C@H](CC(=O)N3CCc4ccccc4C3)O[C@H](CO)[C@@H]1O2)c1ccc2c(c1)OCO2`, with 1.05 ± 0.05; and `Cc1cccc(-c2ccc([C@H]3[C@@H](CO)N4CCCCN(S(=O)(=O)c5ccccc5F)C[C@@H]34)cc2)c1`, with 1 ± 0.044.
Then `COc1ccc(CN2[C@@H]3CNc4ccccc4[C@@H]3[C@@H]2CO)cc1`, with 1.03 ± 0.011; and `CCNC(=O)C[C@H]1CC[C@H]2[C@@H](COC[C@H](O)CN2C(=O)C2CCCC2)O1`, with 0.978 ± 0.0086.
Turning to `CO[C@@H]1CN(C)C(=O)c2ccc(NC(=O)c3nc4ccccc4s3)cc2OC[C@H](C)N(Cc2cccnc2)C[C@@H]1C`, the viability index came out at 1.06 ± 0.0025.
The result for `COc1cccc(-c2ccc3n(c2=O)C[C@@H]2[C@@H](CO)[C@H](C(=O)NC4Cc5ccccc5C4)N[C@H]32)c1` reads 1.032 ± 0.0045; that for `CC(C)[C@H]1C(=O)N[C@H](c2ccc(F)cc2)C/C=C/C[C@@H](C)Oc2ccccc2C(=O)N1C.CC(C)[C@H]1C(=O)N[C@H](c2ccc(F)cc2)C/C=C\C[C@@H](C)Oc2ccccc2C(=O)N1C`, 1.06 ± 0.1.
The result for `COC(=O)C[C@H]1CC[C@@H]2[C@H](COc3ccc(NC(=O)c4ccc(C(F)(F)F)cc4)cc3C(=O)N2C)O1` reads 1.1 ± 0.054; that for `Cc1noc(C)c1S(=O)(=O)N(C)C[C@@H]1OCCCC[C@@H](C)Oc2ccc(NC(=O)CCC(F)(F)F)cc2C(=O)N([C@H](C)CO)C[C@@H]1C`, 1.05 ± 0.012.
The result for `CN1C(=O)c2cc(NC(=O)Cc3cccs3)ccc2OC[C@H]2O[C@H](CC(=O)NCCCN3CCOCC3)CC[C@@H]21` reads 1.09 ± 0.12.
`C[C@@H](O)C#Cc1ccc([C@H]2[C@@H](CO)N3CCCCN(C(=O)c4ccc5c(c4)OCO5)C[C@@H]23)cc1` displayed a viability index of 1.05 ± 0.093.
As to `CN1c2ccc(Br)cc2[C@H]2[C@H](CCN2C(=O)Nc2cccc(F)c2)[C@@H]1CO`, the viability index worked out at 0.9856 ± 0.0018.
The result for `C[C@H](CO)N1C[C@H](C)[C@@H](CN(C)CC2CC2)Oc2ccc(NC(=O)CCC(F)(F)F)cc2CC1=O` reads 0.979 ± 0.057; that for `O=C1N[C@@H](Cc2ccccc2)COCc2cn(nn2)CC[C@H]1Cc1cccc(F)c1`, 0.979 ± 0.037; that for `C[C@@H]1CN([C@H](C)CO)C(=O)c2cc(-c3ccc(C#N)cc3)cnc2O[C@@H]1CN(C)Cc1cccnc1`, 1.084 ± 0.0053.
Then `C[C@H](CO)N1C[C@H](C)[C@@H](CN(C)C(=O)Nc2ccc(-c3ccccc3)cc2)OCc2ccccc2-c2ccccc2C1=O`, with 1.019 ± 0.0076; and `CCCNC(=O)Nc1ccc2c(c1)C(=O)N(C)C[C@H](OC)[C@@H](C)CN(C)[C@H](C)CO2`, with 1.05 ± 0.056.
The result for `COc1ccc2c3c([nH]c2c1)[C@H](CO)N(C[C@]31CCN(CC1)C(=O)Nc1ccccc1)S(C)(=O)=O` reads 0.121 ± 0.0032; that for `COc1cccc(-c2ccc3c(c2)O[C@H](CN(C)Cc2cccnc2)[C@H](C)CN([C@H](C)CO)S3(=O)=O)c1`, 1.03 ± 0.039; that for `COc1ccccc1CNC(=O)C[C@H]1CC[C@@H]2[C@H](COC[C@@H](O)CN2Cc2ccc3c(c2)OCO3)O1`, 1.1 ± 0.044.
In the case of `CO[C@@H]1CN(C)C(=O)c2cc(NC(=O)c3cnccn3)ccc2OC[C@H](C)NC[C@@H]1C`, the viability index worked out at 1.05 ± 0.026.
The result for `CCN(C[C@@H]1[C@H](c2ccccc2)[C@H](CO)N1C(=O)COC)S(C)(=O)=O` reads 0.9806 ± 0.0067.
